SMILES strings stand for the structures.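 A five-concentration, 48-hour dose response in 96-well plates underlies each endpoint, interpolated linearly between surrounding concentrations. GI50 = concentration required for 50% inhibition of growth.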 Activity calls are given as the source filed them. Rule as the data show it: active = GI50 up to about 1.1 µM and inactive = higher.

The test system of this test is NCI-H322M. The test can be described thus: NCI anticancer screen, dose series, 48 h.
For `CN(C)C/C=C(/c1ccc(Br)cc1)c1cccnc1`, the GI50 was inactive: > 100 µM. The value for `C#Cc1cc(-c2nc3ccccc3s2)ccc1N` was inactive: 18 µM; that for `NC(=O)c1ccc([N+](=O)[O-])cc1` was inactive: > 100 µM. In the case of `C/C(=N\NC(=O)c1ccncc1)c1ccc2ccccc2c1O`, the GI50 is inactive: 4.16 µM. As for `COc1ccc(C(c2cc3c(cc2O)OCO3)N2CCOCC2)cc1OC` (stereo unspecified), the GI50 was inactive: 17.5 µM. The value for `CC1C2CC(C(C3C(=O)C4CC3C(C)(C)C4C)C2=O)C1(C)C` (stereo unspecified) was inactive: > 100 µM; that for `CCC(O)(c1ccc(OC)cc1)C(c1ccc(OCc2ccccc2)cc1)c1ccc(OCc2ccccc2)cc1` (stereo unspecified) was inactive: > 100 µM; that for `CC1=C/C(O)CC(=O)Cc2nc(co2)C(=O)N2CCC=C2C(=O)OC(C(C)C)C(C)/C=C\C(=O)NC/C=C\1` (stereo unspecified) was inactive: 28.2 µM. For `CC(=O)N1C(Nc2cnc3ccccc3c2)CCN1c1ccccc1` (stereo unspecified), the GI50 was inactive: > 10 µM. `O=c1[nH]nc(Nc2ccccc2)c2nnn(Cc3ccccc3)c12`: the GI50 is inactive: > 100 µM. Take `S=C(Nc1ccc2c(c1)oc1ccccc12)c1cccs1`: the GI50 is inactive: 47.6 µM. In the case of `COC(=O)C1(NC(=O)C(N)CC(=O)O)C(C)C1C` (stereo unspecified), the GI50 was inactive: > 100 µM.

Turning to `C[s+]1c2ccccc2c2ccccc21`, the GI50 was inactive: > 100 µM. For `COC(=O)Nc1nc2ccc(S(=O)(=O)SC)cc2[nH]1`, the GI50 was inactive: 9.14 µM.

As for `CC(=O)OCC1OC(n2cnc3nc(Br)[nH]c(=O)c32)C(OC(C)=O)C1OC(C)=O` (stereo unspecified), the GI50 was inactive: > 100 µM.

Take `CCOc1ccccc1/C=C(/C#N)C(N)=O`: the GI50 was inactive: > 100 µM. As for `COc1cccc2c1OC1c3ccccc3OCC1(O)C2` (stereo unspecified), the GI50 is inactive: > 100 µM. In the case of `CCN1C2=NCCN2S(=O)(=O)c2ccccc21` it was inactive: > 100 µM; in that of `COC(=O)C(=O)c1c2ccccc2n2ccc3c4ccccc4[nH]c3c12`, inactive: > 10 µM. For the molecule `CN(O)C(=O)CCCC(=O)NCC(C)(C)CNC(=O)CCCC(=O)N(C)O`, the GI50 was inactive: > 100 µM. On to `CCOC(=O)c1c(-c2ccccc2)c(-c2ccccc2)cn1C`, for which the GI50 was inactive: > 10 µM.

For `CC1=CC(C)(c2c[nH]c3ccccc23)CC(C)(C)c2c1[nH]c1ccccc21` (stereo unspecified), the GI50 was inactive: 19.1 µM. In the case of `CN(C(=O)c1ccco1)C(=S)N1CCN(c2ccccn2)CC1` it was inactive: > 100 µM; in that of `Cn1cc(-c2cnc(-c3cn(C)c4ccccc34)cn2)c2ccccc21`, active: 0.804 µM; in that of `N=c1n(C(=O)N2CCCC2)c2cc(Cl)ccc2n1C1=NCCN1`, inactive: > 100 µM. As to `CC1=C(C(=O)CC(=O)C(=O)Nc2ccc(Cl)cc2C)Sc2ccccc2N1`, the GI50 was inactive: > 100 µM. The value for `CCOP(=O)(OCC)C(C#N)Cc1ccco1` (stereo unspecified) was inactive: > 10 µM; that for `O=C1c2cccc(NCCNCCO)c2C(=O)c2cccc(NCCNCCO)c21` was active: 0.459 µM.

With `COc1cc(/C=C2\C[C@H]3[C@@H]4CC=C5C[C@@H](O)CC[C@]5(C)[C@H]4CC[C@]3(C)[C@H]2O)cc(OC)c1OC`, the GI50 was inactive: 25.6 µM.

As to `O=c1c2ccccc2sc2cccc(NCCCN3CCN(CCCNc4cccc5sc6ccccc6c(=O)c45)CC3)c12`, the GI50 is inactive: > 100 µM. In the case of `O=S(=O)(c1ccccc1)n1cnc(CCc2ccccc2)n1` it was inactive: > 100 µM; in that of `CNc1cc(Cl)ccc1C(=O)N1CCC[C@H]1CO`, inactive: > 100 µM; in that of `Cc1cccc(/N=C/c2ccc(N(CCC#N)S(=O)(=O)c3ccccc3)cc2C)c1`, inactive: > 100 µM. Consider `O=[N+]([O-])c1ccc(CSc2c3ccccc3nc3ccccc23)cc1`, for which the GI50 was inactive: 8.47 µM. In the case of `CCCC[C@H]1C(=O)O[C@H](C)[C@H](NC(=O)c2cccc(NC=O)c2OC)C(=O)O[C@@H](C)[C@@H]1OC(=O)C(C)CC.CCCC[C@H]1C(=O)O[C@H](C)[C@H](NC(=O)c2cccc(NC=O)c2OC)C(=O)O[C@@H](C)[C@@H]1OC(=O)CC(C)C` (stereo partly specified) it was inactive: 16.6 µM. On to `O=C(O)c1cccc(NC(C(=O)c2ccccc2)c2ccccc2)c1` (stereo unspecified), for which the GI50 is inactive: > 100 µM. The value for `CC(=O)C(=[N+]=[N-])C(=O)N1CCOC1=O` was inactive: > 10 µM. In the case of `COCOc1cc(OC)c(Br)cc1C/C(=N/O)C(=O)OC`, the GI50 is inactive: > 100 µM.

Turning to `Nc1ccc2c(c1)N(C(=O)CCCC(=O)N1CC(CCl)c3ccc(N)cc31)CC2CCl` (stereo unspecified), the GI50 was inactive: 1.9 µM. In the case of `NC12CC3CC(C1)CC(Cl)(C3)C2` it was inactive: > 100 µM; in that of `O=C(SC1=NCCN1)c1cccc2ccccc12`, inactive: > 100 µM. As to `Cc1ccc(/N=N/C(=N\c2ccc(F)cc2)c2ccc(N(CCC#N)CCC#N)cc2)cc1`, the GI50 was inactive: > 100 µM. Take `Cc1ccc(/C=C/C(=O)c2c([O-])on[n+]2-c2ccccc2)cc1`: the GI50 was inactive: 4.36 µM. Consider `OCCNCO`, for which the GI50 is inactive: > 100 µM.

Turning to `CC1C2CCC3C(O)C2(CC(O)C2(O)C1CC(O)C2(C)C)CC3(C)O` (stereo unspecified), the GI50 was inactive: > 100 µM. Turning to `CC(O)(P(=O)(O)O)P(=O)(O)OCC(O)CN1CCOCC1` (stereo unspecified), the GI50 is inactive: > 100 µM.

`CN(CCO)/N=N/c1[nH]cnc1C(N)=O`: the GI50 is inactive: > 100 µM. Regarding `COc1cccc(C2c3cc4c(cc3OC(C)(O)C2C)OCO4)c1O` (stereo unspecified), the GI50 was inactive: 4.74 µM.

As to `O=C1O/C(=C(/c2ccc(Cl)cc2)c2nc3ccccc3[nH]2)C(O)=C1c1ccc(Cl)cc1`, the GI50 was inactive: 3.16 µM. For `CC(=O)NC(CCCNC(=O)OCc1ccccc1)C(=O)O` (stereo unspecified), the GI50 is inactive: > 100 µM. The value for `CON(C(=O)OC(C)(C)C)c1ccccc1` was inactive: > 100 µM. In the case of `N#CC1(C#N)C2=C(CCCC2)NC(c2ccc(Br)cc2)C1(C#N)C#N` (stereo unspecified) it was inactive: 18.1 µM; in that of `CCCCn1cnnc1NS(=O)(=O)c1cc(C)c(Cl)cc1SCC(=O)O`, inactive: > 10 µM. As to `C/C(=N/Nc1ccc([N+](=O)[O-])cc1[N+](=O)[O-])C(CC(C(=O)Nc1ccccc1C)/C(C)=N\Nc1ccc([N+](=O)[O-])cc1[N+](=O)[O-])C(=O)Nc1ccccc1C` (stereo unspecified), the GI50 is inactive: 14.8 µM. The value for `COc1ccc(/C=N/c2ccc(-c3nc4ccccc4[nH]3)cc2)cc1OC` was inactive: > 100 µM; that for `CN(C)CCNC(=O)c1cccc2c(=O)c3ccccc3oc12` was inactive: 27.5 µM; that for `CCOc1ccc(O)cc1[P+](c1ccccc1)(c1ccccc1)c1ccccc1` was inactive: 12.6 µM. Consider `Cc1ccc(S(=O)(=O)NCC2CCCCC2=O)cc1` (stereo unspecified), for which the GI50 was inactive: > 100 µM. The value for `CCOC(=O)c1ccc(Nc2cnc3ccc(C(F)(F)F)cc3n2)cc1` was inactive: 18.1 µM; that for `N#C/C(=C\c1ccc(C(O)P(=O)(O)O)cc1)C(N)=O` (stereo unspecified) was inactive: > 100 µM. For `O=C1NC2=NOC(=O)NC2=NO1`, the GI50 is inactive: > 200 µM. For the molecule `COc1cc(C(O)CCBr)c(OC)cc1C` (stereo unspecified), the GI50 was inactive: 31.9 µM. On to `COc1ccc2oc(-c3cccnc3)cc(=O)c2c1`, for which the GI50 is inactive: 70.8 µM. Take `COc1ccc(C2S/C(=C\c3ccc(O)cc3)C(=O)N2NC(=O)Cc2ccccc2)cc1` (stereo unspecified): the GI50 is inactive: > 100 µM.

For `O=C1NC(SSC2=NNC3(C(=O)N2)c2ccccc2-c2ccccc23)=NNC12c1ccccc1-c1ccccc12`, the GI50 is inactive: > 10 µM. With `C(/Cc1ccc2c(c1)OCO2)=N\N=C1NCCCCN1`, the GI50 was inactive: > 100 µM. Take `Cc1c(Cc2ccccc2)n(C(C)OCCN(OC(=O)Oc2ccccc2)C(=O)Oc2ccccc2)c(=O)[nH]c1=O` (stereo unspecified): the GI50 is inactive: 23.4 µM. Turning to `CC12CCC3C(CCC4CC(OC(=O)Cc5ccc(N(CCCl)CCCl)cc5)CCC43C)C1CCC(=O)N2` (stereo unspecified), the GI50 is inactive: 18.3 µM. The value for `ClCCCN1CCN(CCCl)CC1` was inactive: 780 µM. On to `OC1=C(c2ccccc2)C2=NCCN2c2ccccc21`, for which the GI50 is inactive: 53.1 µM. In the case of `Cc1c(N2CCN(C)CC2)nc2ccc(Cl)cc2c1-c1ccccc1` it was inactive: 14 µM; in that of `N=C(N)NS(=O)(=O)c1ccc(/N=N/c2c(O)c(C(=O)O)cc3ccccc23)cc1`, inactive: > 100 µM. The value for `Cn1c(=O)cc(NCc2ccc(Cl)cc2)[nH]c1=O` was inactive: > 100 µM; that for `CCOC(=O)CC(N1CC1)N1CC1` was inactive: > 10 µM. Consider `COc1cc(S(=O)(=O)Nc2ccc(-c3csc(N4C(=O)C(C)SC4c4cccs4)n3)cc2)ccc1Cl` (stereo unspecified), for which the GI50 is inactive: > 100 µM.

For `Nc1cc2nc(O)c(O)nc2cc1N`, the GI50 is inactive: > 100 µM. Take `O=S(=O)(O)C1CCC(O)C2NCCCC21` (stereo unspecified): the GI50 is inactive: > 100 µM.

Turning to `Cc1ccc(S(=O)(=O)N/N=C2/CCC3(O)CC2(C)CCC2[C@H]3CC2(C)C)cc1` (stereo partly specified), the GI50 was inactive: 53.8 µM. With `C/C1=C\[C@@H](C)C[C@@H](C)OC(=O)[C@@H](C)NC(=O)[C@H](Cc2ccc(O)c(Br)c2)N(C)C(=O)CNC(=O)[C@H](C)C1`, the GI50 was inactive: 1.14 µM. On to `CC(=O)C1C(=O)C(=O)N(c2ccc(Cl)c(Cl)c2)C1=O` (stereo unspecified), for which the GI50 was inactive: > 100 µM. As to `O=C1/C(=C/c2cccc([N+](=O)[O-])c2)CCCc2ccccc21`, the GI50 was inactive: 17.2 µM. The value for `CCCCCCCCCCCC[N+]12CC[N+](CCN)(CC1)CC2` was inactive: 46.1 µM; that for `CCOC(=O)CSC(=O)NCCCl` was inactive: > 100 µM.

Turning to `CN1CCC(c2c(O)cc(O)c3c(=O)cc(-c4ccccc4Cl)oc23)C(O)C1` (stereo unspecified), the GI50 was active: 0.0933 µM. Consider `O=C(Nn1c(-c2cccs2)nc2ccc(I)cc2c1=O)c1ccccc1`, for which the GI50 was inactive: 27.2 µM. In the case of `C=C1C(=O)O[C@@H]2[C@H]1CCC(C)=C1C=CC(=O)[C@]12C` it was inactive: 20.7 µM.

The values are drawn from ChEMBL document CHEMBL1201862, “PubChem BioAssay data set” (2004).
